Data: PubChem BioAssay (NCI)
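Cells were grown in 96-well plates and exposed to each compound for 48 hours at five concentrations; endpoints were interpolated linearly between bracketing concentrations, or set to the highest concentration if not reached. At the TGI there is no net growth.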 Certain results were filed several times, with different values. This list holds those alone. There may be further records. Records of one sample usually come from different ranges of test concentrations, which the source does not state; some values may only mark the edge of a range.

Tests used:
CCRF-CEM leukemia = test: NCI tumour cell line growth inhibition, 48 h
CAKI-1 renal = test: NCI tumour cell line growth inhibition, 48 h

CN1CCN(Cc2ccc(NC(=O)c3cncc(C#Cc4cnc5ccc(NC6CCOCC6)nn45)c3)cc2C(F)(F)F)CC1
TGI (CCRF-CEM leukemia): 4.26 µM and 396 nM
TGI (CAKI-1 renal): 5.35 µM and 246 nM
